To fix the notation:
B1: GPR68, Q15743 (parent)
chain: MGNITADNSSMSCTIDHTIHQTLAPVVYVTVLVVGFPANCLSLYFGYLQIKARNELGVYLCNLTVADLFYICSLPFWLQYVLQHDNWSHGDLSCQVCGILLYENIYISVGFLCCISVDRYLAVAHPFRFHQFRTLKAAVGVSVVIWAKELLTSIYFLMHEEVIEDENQHRVCFEHYPIQAWQRAINYYRFLVGFLFPICLLLASYQGILRAVRRSHGTQKSRKDQIQRLVLSTVVIFLACFLPYHVLLLVRSVWEASCDFAKGVFNAYHFSLLLTSFNCVADPVLYCFVSETTHRDLARLRGACLAFLTCSRTGRAREAYPLGAPEASGKSGAQGEEPELLTKLHPAFQTPNSPGSGGFPTGRLA

In data set [1] the parent is B1. As to the kind of experiment: cAMP reporter score (Enrich2 score, wild type = 0); higher = more signal; HEK293T, FACS bins.
Variants of B1 are the subject of data set [2]. The data set is described as follows: surface expression score (Enrich2 score, wild type = 0); higher = more signal; HEK293T, FACS bins.

The least precise scores are not listed. Not listed are two conditions whose scores span a narrow range. Names with del lack the residues named; names with ins carry added residues between the positions named. For some assays here: The data file names ogerin without a concentration.

Regarding A298E, the cAMP reporter score came out at 0.433 in data set [1] (pH 5.5); 0.356 in data set [1] (pH 6); 0.223 in data set [1] (pH 6, modulator: ogerin); 0.25 in data set [1] (pH 6.5, modulator: ogerin). Further, the surface expression score in data set [2] was found to be 0.003.

Consider A298M, for which the cAMP reporter score is 0.29 in data set [1] (pH 5.5); -0.729 in data set [1] (pH 6); 0.643 in data set [1] (pH 6, modulator: ogerin); 0.337 in data set [1] (pH 6.5, modulator: ogerin). The surface expression score in data set [2] came to 0.195.

For the variant A298T, the cAMP reporter score in data set [1] (pH 5.5) is 1.56; in data set [1] (pH 6), 0.51; in data set [1] (pH 6, modulator: ogerin), 0.822; in data set [1] (pH 6.5, modulator: ogerin) it was -0.554. Also, the surface expression score in data set [2] turned out to be 0.652.

With A298S, the cAMP reporter score is 0.217 in data set [1] (pH 5.5); 0.319 in data set [1] (pH 6); 0.464 in data set [1] (pH 6, modulator: ogerin); -0.154 in data set [1] (pH 6.5, modulator: ogerin). Further, the surface expression score in data set [2] came out at 0.184.

Turning to A298H, the cAMP reporter score in data set [1] (pH 5.5) is 0.511; in data set [1] (pH 6), -0.03; in data set [1] (pH 6, modulator: ogerin), 0.483; in data set [1] (pH 6.5, modulator: ogerin), -0.567. The surface expression score in data set [2] was -0.021.

On to A298Y, for which the cAMP reporter score in data set [1] (pH 5.5) was 0.366; in data set [1] (pH 6) it was -0.458; in data set [1] (pH 6, modulator: ogerin) it was 0.369; in data set [1] (pH 6.5, modulator: ogerin) it was -0.299. Also, in data set [2], the surface expression score was -0.146.

With A298L, the cAMP reporter score in data set [1] (pH 5.5) is -0.103; in data set [1] (pH 6), 1.35; in data set [1] (pH 6, modulator: ogerin), -0.202; in data set [1] (pH 6.5, modulator: ogerin), 0.015. The surface expression score in data set [2] stood at 0.797.

As for A298K, the cAMP reporter score in data set [1] (pH 5.5) is 0.433; in data set [1] (pH 6), 0.744; in data set [1] (pH 6, modulator: ogerin) it was 1.06; in data set [1] (pH 6.5, modulator: ogerin) it was 1.48. The surface expression score in data set [2] amounted to 0.875.

As to A298P, the cAMP reporter score was 0.259 in data set [1] (pH 5.5); -0.666 in data set [1] (pH 6); -0.043 in data set [1] (pH 6, modulator: ogerin); -1.11 in data set [1] (pH 6.5, modulator: ogerin). The surface expression score in data set [2] came to 0.378.

As for A298F, the cAMP reporter score in data set [1] (pH 5.5) was 0.147; in data set [1] (pH 6) it was -0.819; in data set [1] (pH 6, modulator: ogerin), -0.09; in data set [1] (pH 6.5, modulator: ogerin), -0.453. Besides, the surface expression score in data set [2] was -0.341.

A298I: the cAMP reporter score is 0.481 in data set [1] (pH 5.5); -1.17 in data set [1] (pH 6); -0.501 in data set [1] (pH 6, modulator: ogerin); 0.161 in data set [1] (pH 6.5, modulator: ogerin). Further, the surface expression score in data set [2] came to 0.372.

Turning to A298Q, the cAMP reporter score in data set [1] (pH 5.5) was -0.23; in data set [1] (pH 6), -1.07; in data set [1] (pH 6, modulator: ogerin), -0.721; in data set [1] (pH 6.5, modulator: ogerin), -0.284. Further, in data set [2], the surface expression score was -0.782.

Regarding A298N, the cAMP reporter score in data set [1] (pH 5.5) came out at 0.92; in data set [1] (pH 6), 0.17; in data set [1] (pH 6, modulator: ogerin), 0.845; in data set [1] (pH 6.5, modulator: ogerin), 1.18. Further, the surface expression score in data set [2] stood at 0.938.

As to A298R, the cAMP reporter score was -0.422 in data set [1] (pH 5.5); 0.267 in data set [1] (pH 6); -0.815 in data set [1] (pH 6, modulator: ogerin); -0.547 in data set [1] (pH 6.5, modulator: ogerin). For the same variant, in data set [2], the surface expression score is -0.997.

As for A298C, the cAMP reporter score in data set [1] (pH 5.5) is -0.956; in data set [1] (pH 6) it was -0.963; in data set [1] (pH 6, modulator: ogerin), -1.05; in data set [1] (pH 6.5, modulator: ogerin), -1.12. Also, in data set [2], the surface expression score is -0.541.

A298W: the cAMP reporter score in data set [1] (pH 5.5) was 0.923; in data set [1] (pH 6, modulator: ogerin) it was 0.653; in data set [1] (pH 6.5, modulator: ogerin), -0.107. Further, the surface expression score in data set [2] was 1.19.

A298G: the cAMP reporter score is 0.244 in data set [1] (pH 5.5); -0.472 in data set [1] (pH 6); 0.207 in data set [1] (pH 6, modulator: ogerin); -0.551 in data set [1] (pH 6.5, modulator: ogerin). In addition, in data set [2], the surface expression score turned out to be 0.053.

For the variant P321_G323del, the cAMP reporter score is -0.939 in data set [1] (pH 5.5); 0.273 in data set [1] (pH 6); -0.292 in data set [1] (pH 6, modulator: ogerin).

In the case of L322_G323insGSG, the cAMP reporter score in data set [1] (pH 5.5) was found to be 0.994; in data set [1] (pH 6), 0.828; in data set [1] (pH 6, modulator: ogerin) it was 1.03; in data set [1] (pH 6.5, modulator: ogerin), 1.57. For the same variant, the surface expression score in data set [2] came out at 0.675.

For the variant E326_S328del, the cAMP reporter score in data set [1] (pH 5.5) was determined as 0.276; in data set [1] (pH 6), 0.137; in data set [1] (pH 6, modulator: ogerin) it was 0.841; in data set [1] (pH 6.5, modulator: ogerin), 0.092. Besides, the surface expression score in data set [2] is -0.223.

As to G302_A303insGS, the cAMP reporter score was 0.297 in data set [1] (pH 5.5); -0.249 in data set [1] (pH 6); 0.384 in data set [1] (pH 6, modulator: ogerin); -0.336 in data set [1] (pH 6.5, modulator: ogerin). In data set [2], the surface expression score was -0.856.

R301_A303del: the cAMP reporter score in data set [1] (pH 5.5) is -0.098; in data set [1] (pH 6) it was -0.502; in data set [1] (pH 6, modulator: ogerin) it was -0.547; in data set [1] (pH 6.5, modulator: ogerin), -1.12. Further, in data set [2], the surface expression score is -1.53.

Take T313_G314del: the cAMP reporter score was 0.105 in data set [1] (pH 5.5); 0.436 in data set [1] (pH 6); 0.608 in data set [1] (pH 6, modulator: ogerin); 0.198 in data set [1] (pH 6.5, modulator: ogerin). For the same variant, the surface expression score in data set [2] worked out at 0.197.

For L297R, the cAMP reporter score is 0.058 in data set [1] (pH 5.5); -0.6 in data set [1] (pH 6); -1.02 in data set [1] (pH 6, modulator: ogerin); -1.38 in data set [1] (pH 6.5, modulator: ogerin). In data set [2], the surface expression score was 0.057.

For the variant L297S, the cAMP reporter score is 0.196 in data set [1] (pH 5.5); -0.877 in data set [1] (pH 6); -0.195 in data set [1] (pH 6, modulator: ogerin); -0.609 in data set [1] (pH 6.5, modulator: ogerin). The surface expression score in data set [2] is -0.369.

With L297W, the cAMP reporter score was 0.282 in data set [1] (pH 5.5); -0.951 in data set [1] (pH 6); 0.635 in data set [1] (pH 6, modulator: ogerin); 0.117 in data set [1] (pH 6.5, modulator: ogerin). Also, the surface expression score in data set [2] was 1.07.

Turning to L297V, the cAMP reporter score in data set [1] (pH 5.5) was 0.376; in data set [1] (pH 6), -1.44; in data set [1] (pH 6, modulator: ogerin), 0.343; in data set [1] (pH 6.5, modulator: ogerin), -0.857. Further, in data set [2], the surface expression score was 0.594.

For the variant L297Y, the cAMP reporter score was 0.662 in data set [1] (pH 5.5); -0.916 in data set [1] (pH 6); -0.239 in data set [1] (pH 6, modulator: ogerin); -0.326 in data set [1] (pH 6.5, modulator: ogerin). Besides, the surface expression score in data set [2] was -0.828.

For the variant L297T, the cAMP reporter score was -0.348 in data set [1] (pH 5.5); -1.42 in data set [1] (pH 6); -1.03 in data set [1] (pH 6, modulator: ogerin); -0.565 in data set [1] (pH 6.5, modulator: ogerin). Moreover, in data set [2], the surface expression score was 0.265.

As for S311_R312insG, the cAMP reporter score in data set [1] (pH 5.5) was -0.841; in data set [1] (pH 6), -0.246; in data set [1] (pH 6, modulator: ogerin) it was -0.901; in data set [1] (pH 6.5, modulator: ogerin), -0.409. The surface expression score in data set [2] is -1.28.

L322_G323del: the cAMP reporter score is -0.68 in data set [1] (pH 5.5); 1.23 in data set [1] (pH 6); -0.935 in data set [1] (pH 6, modulator: ogerin); -0.166 in data set [1] (pH 6.5, modulator: ogerin). Besides, the surface expression score in data set [2] was -0.125.

For the origin of these results see the GPR68 mutational scans of Howard et al. (2025).
